# Experimental data reported in a collection of fitness landscapes (doi:10.1126/science.1257360).
# The other results are listed elsewhere or left out.
# B1: PhoQ; a variant is named by its letters at X, in order, P23837 (parent)
# chain: MKKLLRLFFPLSLRVRFLLATAAVVLVLSLAYGMVALIGYSVSFDKTTFRLLRGESNLFYTLAKWENNKLHVELPENIDKQSPTMTLIYDENGQLLWAQRDVPWLMKMIQPDWLKSNGFHEIEADVNDTSLLLSGDHSIQQQLQEVREDDDDAEMTHSVAVNVYPATSRMPKLTIVVVDTIPVELKSSYMVWSWFIYVLSANLLLVIPLLWVAAWWSLRPIEALAKEVRELEEHNRELLNPATTRELTSLVRNLNRLLKSERERYDKYRTTLTDLTHSLKTPLXXLQXXLRSLRSEKMSVSDAEPVMLEQISRISQQIGYYLHRASMRGGTLLSRELHPVAPLLDNLTSALNKVYQRKGVNISLDISPEISFVGEQNDFVEVMGNVLDNACKYCLEFVEISARQTDEHLYIVVEDDGPGIPLSKREVIFDRGQRVDTLRPGQGVGLAVAREITEQYEGKIVAGESMLGGARMEVIFGRQHSAPKDE
# Variants of: B1
# Assay: enrichment ratio after two sorts for PhoP signalling (ratio (wild type AVST 3.29)); higher = more functional
# Settings: with PhoP (E. coli)
row,Variant,enrichment ratio
1,NDQS,≤ 0.25
2,MEGV,≤ 0.25
3,IRIA,≤ 0.25
4,FISY,≤ 0.25
5,WRVR,≤ 0.25
6,NWGL,≤ 0.25
7,KEGA,≤ 0.25
8,TFEM,≤ 0.25
9,LMIN,≤ 0.25
10,VQVM,≤ 0.25
11,FESI,≤ 0.25
12,DKVN,≤ 0.25
13,CYFQ,≤ 0.25
14,IAHI,≤ 0.25
15,QCCY,≤ 0.25
16,EQAW,≤ 0.25
17,RTWR,≤ 0.25
18,HRSC,≤ 0.25
19,LWKV,≤ 0.25
20,VFDP,≤ 0.25
21,PSPN,≤ 0.25
22,SSPH,≤ 0.25
23,CSHF,≤ 0.25
24,DGIK,≤ 0.25
25,KHFM,≤ 0.25
26,YNPM,≤ 0.25

row,Variant,enrichment ratio
1,SRQC,≤ 0.25
2,IHHA,≤ 0.25
3,HYNV,≤ 0.25
4,GKQV,≤ 0.25
5,DVTY,≤ 0.25
6,HRAK,≤ 0.25
7,WCMY,≤ 0.25
8,MKWV,≤ 0.25
9,LVCN,≤ 0.25
10,DWHL,≤ 0.25
11,HIRH,≤ 0.25
12,DRDA,≤ 0.25
13,MATM,22.6
14,TIRT,≤ 0.25
15,KSEE,≤ 0.25
16,KPHE,≤ 0.25
17,SGEV,≤ 0.25
18,EVML,≤ 0.25
19,DQDP,≤ 0.25
20,TYKE,≤ 0.25
21,SCLP,≤ 0.25
22,TLYQ,0.833
23,KPPM,≤ 0.25
24,HSLY,≤ 0.25
25,TVNR,4.75
26,SCAL,7.78

row,Variant,enrichment ratio
1,WLRI,≤ 0.25
2,PLDI,≤ 0.25
3,SKWA,≤ 0.25
4,FSAA,≤ 0.25
5,VNDP,≤ 0.25
6,TDFK,≤ 0.25
7,YADS,≤ 0.25
8,QRYY,≤ 0.25
9,VDTD,≤ 0.25
10,TSMM,21.5
11,KPSN,≤ 0.25
12,HVKT,≤ 0.25
13,QEVS,≤ 0.25
14,MSWM,23.7
15,GIHS,≤ 0.25
16,SGKK,≤ 0.25
17,RRRQ,≤ 0.25
18,DCPV,≤ 0.25
19,TLTE,≤ 0.25
20,THIW,≤ 0.25
21,LWSN,≤ 0.25
22,NEWN,≤ 0.25
23,VQFN,≤ 0.25
24,GVLY,3.39
25,DDQK,≤ 0.25
26,MTIC,≤ 0.25

row,Variant,enrichment ratio
1,SHLE,8.54
2,HYAF,≤ 0.25
3,SSYD,≤ 0.25
4,MCLD,≤ 0.25
5,DHFY,≤ 0.25
6,QCRW,≤ 0.25
7,HAHS,≤ 0.25
8,TTCL,18.5
9,EAVK,≤ 0.25
10,IVPL,≤ 0.25
11,IEYC,≤ 0.25
12,PPCR,≤ 0.25
13,DVLE,≤ 0.25
14,AHNH,3.12
15,FASK,≤ 0.25
16,EKCA,≤ 0.25
17,WVSM,≤ 0.25
18,PRNT,≤ 0.25
19,YRTY,≤ 0.25
20,LTVI,≤ 0.25
21,QWSA,≤ 0.25
22,GPSW,≤ 0.25
23,NEQG,≤ 0.25
24,LSEI,≤ 0.25
25,NHKP,≤ 0.25
26,PWFG,≤ 0.25

row,Variant,enrichment ratio
1,ALYQ,≤ 0.25
2,FWRR,≤ 0.25
3,RFMK,≤ 0.25
4,VNTN,≤ 0.25
5,AGTD,≤ 0.25
6,TICD,≤ 0.25
7,NSEC,≤ 0.25
8,MWYF,≤ 0.25
9,NKQL,≤ 0.25
10,ECSS,≤ 0.25
11,FLWW,≤ 0.25
12,YDKC,≤ 0.25
13,FEPM,≤ 0.25
14,LFEC,≤ 0.25
15,MATY,≤ 0.25
16,RARE,≤ 0.25
17,SMVK,1.5
18,EQKM,≤ 0.25
19,SKNM,≤ 0.25
20,LAEV,≤ 0.25
21,QAMC,≤ 0.25
22,HNAM,≤ 0.25
23,WSMA,≤ 0.25
24,DISI,≤ 0.25
25,AMYK,≤ 0.25
26,DTWQ,≤ 0.25

row,Variant,enrichment ratio
1,SGSH,10.8
2,ICKY,≤ 0.25
3,LYPS,≤ 0.25
4,LGYM,8.74
5,MRRM,≤ 0.25
6,RYMF,≤ 0.25
7,KPWF,≤ 0.25
8,GGSI,12.3
9,EDIC,≤ 0.25
10,RVAT,≤ 0.25
11,ACFS,≤ 0.25
12,SNFW,1.1
13,IPGP,≤ 0.25
14,RGHY,≤ 0.25
15,HWLL,≤ 0.25
16,FHEH,≤ 0.25
17,MIWG,≤ 0.25
18,SDLT,7.31
19,LMKG,≤ 0.25
20,NVPR,≤ 0.25
21,LFNA,≤ 0.25
22,AFDT,≤ 0.25
23,LYVQ,≤ 0.25
